Our source for the binding values is PMC8637566, “ERK signaling controls productive HIF‐1 binding to chromatin and cancer cell adaptation to hypoxia through HIF‐1α interaction with NPM1” (Molecular Oncology, 2021).

The chains behind the UniProt entries cited, without tags or fusion partners. Where a name states a change or a piece, a line headed by the entry shows the natural chain unless it says otherwise. A line that says so, or that is headed by a name, gives the form on record, which may keep a tag or linker.
UniProt P06748: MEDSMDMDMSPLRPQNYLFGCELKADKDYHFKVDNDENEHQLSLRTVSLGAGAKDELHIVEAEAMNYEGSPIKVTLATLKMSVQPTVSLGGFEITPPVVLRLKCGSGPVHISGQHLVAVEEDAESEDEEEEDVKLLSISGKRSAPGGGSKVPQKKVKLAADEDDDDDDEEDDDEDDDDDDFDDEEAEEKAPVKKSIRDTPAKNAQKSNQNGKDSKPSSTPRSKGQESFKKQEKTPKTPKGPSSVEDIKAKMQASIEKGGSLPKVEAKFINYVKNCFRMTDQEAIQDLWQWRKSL
GST‐NPM1 B23.2 (P06748, form named): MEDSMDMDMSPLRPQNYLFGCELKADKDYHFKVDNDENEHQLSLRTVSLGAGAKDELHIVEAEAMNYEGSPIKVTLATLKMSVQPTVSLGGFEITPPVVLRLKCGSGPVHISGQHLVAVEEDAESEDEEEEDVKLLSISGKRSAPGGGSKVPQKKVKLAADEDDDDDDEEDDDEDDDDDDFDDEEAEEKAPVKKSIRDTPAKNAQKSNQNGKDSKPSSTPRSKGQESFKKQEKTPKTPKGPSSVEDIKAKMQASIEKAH
UniProt P27540: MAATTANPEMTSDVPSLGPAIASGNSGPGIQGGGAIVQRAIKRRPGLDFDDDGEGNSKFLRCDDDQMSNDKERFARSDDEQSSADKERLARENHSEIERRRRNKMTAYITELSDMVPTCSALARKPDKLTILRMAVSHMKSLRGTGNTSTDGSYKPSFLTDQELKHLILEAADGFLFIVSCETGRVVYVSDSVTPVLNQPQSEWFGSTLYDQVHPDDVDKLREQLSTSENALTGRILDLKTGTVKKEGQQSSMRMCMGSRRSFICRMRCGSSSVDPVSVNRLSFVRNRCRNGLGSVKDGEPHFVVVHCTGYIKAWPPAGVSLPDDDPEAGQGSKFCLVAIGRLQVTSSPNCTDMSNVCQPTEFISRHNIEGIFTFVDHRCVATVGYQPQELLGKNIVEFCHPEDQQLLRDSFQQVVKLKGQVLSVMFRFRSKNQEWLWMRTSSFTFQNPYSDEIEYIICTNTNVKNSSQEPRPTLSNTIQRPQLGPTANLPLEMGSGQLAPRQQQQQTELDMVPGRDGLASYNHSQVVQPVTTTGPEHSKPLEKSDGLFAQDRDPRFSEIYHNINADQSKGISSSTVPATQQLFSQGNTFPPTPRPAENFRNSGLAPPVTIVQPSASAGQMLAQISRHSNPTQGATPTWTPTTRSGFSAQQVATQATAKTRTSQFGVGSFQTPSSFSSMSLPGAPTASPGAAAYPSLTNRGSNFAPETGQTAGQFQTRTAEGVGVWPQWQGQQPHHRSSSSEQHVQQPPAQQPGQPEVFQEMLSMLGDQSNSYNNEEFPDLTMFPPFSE
UniProt Q99814: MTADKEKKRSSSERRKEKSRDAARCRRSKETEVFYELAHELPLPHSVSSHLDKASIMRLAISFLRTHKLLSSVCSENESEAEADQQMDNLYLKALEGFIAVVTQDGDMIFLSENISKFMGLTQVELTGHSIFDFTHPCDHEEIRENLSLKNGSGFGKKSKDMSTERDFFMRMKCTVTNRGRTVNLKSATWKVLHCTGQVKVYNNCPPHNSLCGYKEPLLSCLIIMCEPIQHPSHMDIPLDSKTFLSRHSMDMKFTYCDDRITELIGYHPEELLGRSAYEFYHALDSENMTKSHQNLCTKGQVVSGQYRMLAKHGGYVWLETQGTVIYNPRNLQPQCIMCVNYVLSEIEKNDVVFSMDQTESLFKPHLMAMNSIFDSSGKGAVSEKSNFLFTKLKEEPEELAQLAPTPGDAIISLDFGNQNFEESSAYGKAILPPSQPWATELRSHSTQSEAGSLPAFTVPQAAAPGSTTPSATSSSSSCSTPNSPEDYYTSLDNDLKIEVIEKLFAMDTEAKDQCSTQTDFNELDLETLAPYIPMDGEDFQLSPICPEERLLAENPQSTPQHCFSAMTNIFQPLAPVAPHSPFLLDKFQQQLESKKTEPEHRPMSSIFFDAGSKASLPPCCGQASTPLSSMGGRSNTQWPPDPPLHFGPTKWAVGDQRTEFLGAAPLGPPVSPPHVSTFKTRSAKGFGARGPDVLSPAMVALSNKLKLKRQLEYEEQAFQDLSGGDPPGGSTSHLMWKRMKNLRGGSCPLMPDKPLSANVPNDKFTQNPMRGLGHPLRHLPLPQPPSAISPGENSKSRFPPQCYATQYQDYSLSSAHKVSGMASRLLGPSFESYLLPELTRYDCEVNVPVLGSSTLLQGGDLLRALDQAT

These are yes or no findings as the source states them, for the method shown. For some assays here: Binding seen in cells or lysates may run through a third protein. Some binding calls cover weakened binding; strength is not graded here.

Assay [1] concerns the target nucleophosmin (NPM1), endogenous (human (endogenous in HeLa and Huh7)) (UniProt P06748). The assay can be described thus: co-IP; anti-NPM1 IP from HeLa cells incubated at 1% O2 for 16 h, untreated; immunoblot for HIF-1α, ARNT, HIF-2α. (In western blotting, separated proteins are transferred to a membrane and probed.)
Assay [2] has as its target GST‐NPM1 B23.2 (UniProt P06748). The assay can be described thus: pull-down; GST-NPM1 forms immobilised on GSH-agarose as baits, bacterially expressed and purified HIF-1α(348–826)SE or TAT-ETD-SE-FLAG peptide as prey; immunoblot with anti-HIF-1α or anti-Flag; both purified.
The next assay has as its target GFP‐HIF‐1α SE (UniProt Q16665). As to the kind of experiment: co-IP; anti-GFP IP from HeLa cells transiently expressing GFP-tagged full-length HIF-1α forms, 20 h post-transfection; immunoblot for ARNT and NPM1.
A further assay concerns the target GFP‐HIF‐1α IA/SA (UniProt Q16665). The description is as above.
In a further assay the target is GFP‐HIF‐1α WT (UniProt Q16665). The assay is described as above.
Another assay has as its target GFP‐HIF‐1α S247A (UniProt Q16665). The assay is described as above.
The target of the next assay is GST‐HIF‐1α(348–826) SE (UniProt Q16665). The assay can be described thus: pull-down; GST-tagged HIF-1α ETD or HIF-1α(348–826) forms immobilised on GSH-agarose as baits, total/soluble HeLa protein extracts as prey; elution by GSH or by TEV cleavage of the GST moiety; SDS/PAGE staining, mass spectrometry of the 36 kDa band, anti-NPM1 immunoblot; only the target purified.

The target of another assay is GST‐ETD‐SA (UniProt Q16665). The description is as above.
The target in another assay is GST‐ETD‐SE (UniProt Q16665). The description is as above.
In assay [3] the target is HIF‐1α, endogenous (human (endogenous in HeLa and Huh7)) (UniProt Q16665). As to the kind of experiment: co-IP; anti-HIF-1α IP from Huh7 cells grown at 1% O2 and treated with ~380 nM TAT-ETD-FLAG peptide forms for 5 h; immunoblot for NPM1.
The target is the same in assay [4]. As to the kind of experiment: co-IP; anti-HIF-1α IP from HeLa cells grown at 21% or 1% O2 for 16 h, untreated, with 5 μM U0126 or deprived of serum; immunoblot for NPM1.
In another assay the target is TAT‐ETD‐FLAG peptide SA (UniProt Q16665). The assay can be described thus: condition: ~380 nM peptide added to the cells for 5 h; co-IP; anti-FLAG IP from Huh7 cells grown at 1% O2 and treated with ~380 nM TAT-ETD-FLAG peptide forms for 5 h; immunoblot for NPM1; only the target purified.
A further assay deals with TAT‐ETD‐FLAG peptide IA (UniProt Q16665). The assay can be described thus: co-IP; anti-FLAG IP from Huh7 cells grown at 1% O2 and treated with ~380 nM TAT-ETD-FLAG peptide forms for 5 h; immunoblot for NPM1; only the target purified.
For another assay, the target named is TAT‐ETD(SE)‐FLAG peptide (UniProt Q16665). The description is as above.
For another assay, the target named is T1, GST‐NPM1 B23.1 (UniProt P06748 1-294).
T1 construct: NPM1 isoform B23.1, the most abundant form, with the C-terminal aromatic stretch; also called GST‐B23.1; B23.1 form of recombinant NPM1; source: E. coli BL21 (RIL), purified (GSH‐agarose)
The assay can be described thus: pull-down; GST-NPM1 splice variants immobilised on GSH-agarose as baits, soluble extracts of hypoxic HeLa cells as prey; anti-HIF-1α immunoblot; only the target purified.

The target of assay [5] is GST‐NPM1 B23.2 (UniProt P06748). Described as above.
The target in assay [6] is nucleophosmin (NPM1), endogenous (human (endogenous in HeLa and Huh7)) (UniProt P06748). As to the kind of experiment: co-IP; anti-NPM1 IP from HeLa cells incubated at 1% O2 for 16 h and treated with 5 μM U0126 (MEK inhibitor); immunoblot for HIF-1α.

As to “aryl hydrocarbon receptor nuclear translocator (ARNT), endogenous (from UniProt P27540 1-789)”, in [1], the binding result was “binds”.
On to “HIF‐1α(348–826)SE, purified, in solution (from UniProt Q16665 348-826) (domain or fragment)”, for which, in the assay with GST‐NPM1 B23.2 [2], the binding entry was “no binding”.
In the case of “HIF‐2α, endogenous (from UniProt Q99814 1-870)”, the binding result in [1] is “no binding”.
“nucleophosmin (NPM1), endogenous (from UniProt P06748 1-294)”: the binding result in the assay with GFP‐HIF‐1α SE is “binds”; with GFP‐HIF‐1α IA/SA, “binds weakly”; with GFP‐HIF‐1α WT it was “binds”; with GFP‐HIF‐1α S247A, “binds”; with GST‐HIF‐1α(348–826) SE, “binds”; in the assay with GST‐ETD‐SA it was “no binding”. The binding entry in the assay with GST‐ETD‐SE is “binds”; in assay [3] it was “binds”; in assay [4] it was “binds”; with TAT‐ETD‐FLAG peptide SA, “no binding”; in the assay with TAT‐ETD‐FLAG peptide IA, “binds”; with TAT‐ETD(SE)‐FLAG peptide, “binds”.
Regarding “HIF‐1α, endogenous (from UniProt Q16665 1-826)”, the binding result in the assay with GST‐NPM1 B23.1 is recorded as “binds”; in the assay with GST‐NPM1 B23.2 [5], “no binding”; in assay [1] it was “binds”; in [6] it was “no binding (condition: with 5 μM U0126 (MEK inhibitor))”.

B1: TAT‐ETD(SE)‐FLAG peptide (peptide, UniProt Q16665 616-658, looked up)
chain: TTTATTDELKTVTKDRMEDIKILIAEPSPTHIHKETTSATSSP
notes: HIF-1α ERK targeted domain (ETD), residues 616–658, Ser641 to Glu; source: E. coli, purified
Take B1: the binding entry in the assay with GST‐NPM1 B23.2 [2] is given as “no binding”.
